In the supplement of paper PMC8728848:
This is one part of the list.

Columns and labels:
Test in all cases: glycan array binding signal (z-score within array); higher = stronger binding
Details in all cases: glycan notation: IUPAC condensed, linker removed
[1] = biological target: Neu5Ac(a2-3)Gal(b1-3)GalNAc
Method in brief: (§1)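 Columns mapping to the same glycan were averaged after glycan names were converted to IUPAC-condensed notation. The data come from 3228 arrays in the Consortium for Functional Glycomics database, limited to those with an available protein sequence. Binding is reported as a within-array Z-score averaged across arrays of one protein sequence and across linkers.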

[2] = biological target: Neu5Ac(a2-3)Gal(b1-3)GalNAc(b1-3)Gal(a1-4)Gal(b1-4)Glc
Method in brief: as §1

[3] = biological target: Neu5Ac(a2-3)Gal(b1-3)GalNAc(b1-4)Gal(b1-4)Glc
Method in brief: as §1

[4] = biological target: Neu5Ac(a2-3)Gal(b1-3)GalNAc(b1-4)[Neu5Ac(a2-3)]Gal(b1-4)Glc
Method in brief: as §1

[5] = biological target: Neu5Ac(a2-3)Gal(b1-3)GalNAc(b1-4)[Neu5Ac(a2-8)Neu5Ac(a2-3)]Gal(b1-4)Glc
Method in brief: as §1

[6] = biological target: Neu5Ac(a2-3)Gal(b1-3)GalNAc6S
Method in brief: as §1

[7] = biological target: Neu5Ac(a2-3)Gal(b1-3)GlcNAc
Method in brief: as §1

[8] = biological target: Neu5Ac(a2-3)Gal(b1-3)GlcNAc(b1-2)Man
Method in brief: as §1

[9] = biological target: Neu5Ac(a2-3)Gal(b1-3)GlcNAc(b1-2)Man(a1-3)[GlcNAc(b1-4)][Neu5Ac(a2-3)Gal(b1-3)GlcNAc(b1-2)Man(a1-6)]Man(b1-4)GlcNAc(b1-4)GlcNAc
Method in brief: as §1

[10] = biological target: Neu5Ac(a2-3)Gal(b1-3)GlcNAc(b1-2)Man(a1-3)[Neu5Ac(a2-3)Gal(b1-3)GlcNAc(b1-2)Man(a1-6)]Man(b1-4)GlcNAc(b1-4)GlcNAc
Method in brief: as §1

[11] = biological target: Neu5Ac(a2-3)Gal(b1-3)GlcNAc(b1-2)[Neu5Ac(a2-3)Gal(b1-3)GlcNAc(b1-4)]Man(a1-6)[Neu5Ac(a2-3)Gal(b1-3)GlcNAc(b1-2)Man(a1-3)]Man(b1-4)GlcNAc(b1-4)GlcNAc
Method in brief: as §1

[12] = biological target: Neu5Ac(a2-3)Gal(b1-3)GlcNAc(b1-3)Gal(b1-3)GlcNAc
Method in brief: as §1

[13] = biological target: Neu5Ac(a2-3)Gal(b1-3)GlcNAc(b1-3)Gal(b1-4)GlcNAc
Method in brief: as §1

[14] = biological target: Neu5Ac(a2-3)Gal(b1-3)GlcNAc(b1-3)GalNAc
Method in brief: as §1

[15] = biological target: Neu5Ac(a2-3)Gal(b1-3)GlcNAc(b1-6)GalNAc
Method in brief: as §1

[16] = biological target: Neu5Ac(a2-3)Gal(b1-3)GlcNAc6S
Method in brief: as §1

[17] = biological target: Neu5Ac(a2-3)Gal(b1-3)[Fuc(a1-4)]GlcNAc
Method in brief: as §1

[18] = biological target: Neu5Ac(a2-3)Gal(b1-3)[Fuc(a1-4)]GlcNAc(b1-3)Gal(b1-3)[Fuc(a1-4)]GlcNAc
Method in brief: as §1

[19] = biological target: Neu5Ac(a2-3)Gal(b1-3)[Fuc(a1-4)]GlcNAc(b1-3)Gal(b1-4)[Fuc(a1-3)]GlcNAc
Method in brief: as §1

[20] = biological target: Neu5Ac(a2-3)Gal(b1-3)[GlcNAc(b1-6)]GalNAc
Method in brief: as §1

[21] = biological target: Neu5Ac(a2-3)Gal(b1-3)[Neu5Ac(a2-6)]GalNAc
Method in brief: as §1

[22] = biological target: Neu5Ac(a2-3)Gal(b1-3)[Neu5Ac(a2-6)]GlcNAc(b1-3)[Fuc(a1-3)[Gal(b1-4)]GlcNAc(b1-6)]Gal(b1-4)Glc
Method in brief: as §1

[23] = biological target: Neu5Ac(a2-3)Gal(b1-3)]Neu5Ac(a2-3)Gal(b1-4)]GlcNAc
Method in brief: as §1

Neu5Ac(a2-3)Gal(b1-4)Glc = biological target: Neu5Ac(a2-3)Gal(b1-4)Glc
Method in brief: as §1

[24] = biological target: Neu5Ac(a2-3)Gal(b1-4)GlcNAc
Method in brief: as §1

[25] = biological target: Neu5Ac(a2-3)Gal(b1-4)GlcNAc(b1-2)Man
Method in brief: as §1

[26] = biological target: Neu5Ac(a2-3)Gal(b1-4)GlcNAc(b1-2)Man(a1-3)[GlcNAc(b1-4)][Neu5Ac(a2-3)Gal(b1-4)GlcNAc(b1-2)Man(a1-6)]Man(b1-4)GlcNAc(b1-4)GlcNAc
Method in brief: as §1

[27] = biological target: Neu5Ac(a2-3)Gal(b1-4)GlcNAc(b1-2)Man(a1-3)[Neu5Ac(a2-3)Gal(b1-4)GlcNAc(b1-2)Man(a1-6)]Man(b1-4)GlcNAc(b1-4)GlcNAc
Method in brief: as §1

[28] = biological target: Neu5Ac(a2-3)Gal(b1-4)GlcNAc(b1-2)Man(a1-3)[Neu5Ac(a2-3)Gal(b1-4)GlcNAc(b1-2)Man(a1-6)]Man(b1-4)GlcNAc(b1-4)[Fuc(a1-6)]GlcNAc
Method in brief: as §1

[29] = biological target: Neu5Ac(a2-3)Gal(b1-4)GlcNAc(b1-2)Man(a1-3)[Neu5Ac(a2-6)Gal(b1-4)GlcNAc(b1-2)Man(a1-6)]Man(b1-4)GlcNAc(b1-4)GlcNAc
Method in brief: as §1

[30] = biological target: Neu5Ac(a2-3)Gal(b1-4)GlcNAc(b1-2)[Neu5Ac(a2-3)Gal(b1-4)GlcNAc(b1-4)]Man(a1-3)[GlcNAc(b1-4)][Neu5Ac(a2-3)Gal(b1-4)GlcNAc(b1-2)[Neu5Ac(a2-3)Gal(b1-4)GlcNAc(b1-6)]Man(a1-6)]Man(b1-4)GlcNAc(b1-4)GlcNAc
Method in brief: as §1

[31] = biological target: Neu5Ac(a2-3)Gal(b1-4)GlcNAc(b1-2)[Neu5Ac(a2-3)Gal(b1-4)GlcNAc(b1-4)]Man(a1-3)[GlcNAc(b1-4)][Neu5Ac(a2-3)Gal(b1-4)GlcNAc(b1-4)Man(a1-6)]Man(b1-4)GlcNAc(b1-4)GlcNAc
Method in brief: as §1

[32] = biological target: Neu5Ac(a2-3)Gal(b1-4)GlcNAc(b1-2)[Neu5Ac(a2-3)Gal(b1-4)GlcNAc(b1-6)]Man(a1-6)[Neu5Ac(a2-3)Gal(b1-4)GlcNAc(b1-2)Man(a1-3)][GlcNAc(b1-4)]Man(b1-4)GlcNAc(b1-4)GlcNAc
Method in brief: as §1

[33] = biological target: Neu5Ac(a2-3)Gal(b1-4)GlcNAc(b1-3)Gal
Method in brief: as §1

[34] = biological target: Neu5Ac(a2-3)Gal(b1-4)GlcNAc(b1-3)Gal(b1-3)GlcNAc
Method in brief: as §1

[35] = biological target: Neu5Ac(a2-3)Gal(b1-4)GlcNAc(b1-3)Gal(b1-4)GlcNAc
Method in brief: as §1

[36] = biological target: Neu5Ac(a2-3)Gal(b1-4)GlcNAc(b1-3)Gal(b1-4)GlcNAc(b1-2)Man(a1-3)[Neu5Ac(a2-3)Gal(b1-4)GlcNAc(b1-3)Gal(b1-4)GlcNAc(b1-2)Man(a1-6)]Man(b1-4)GlcNAc(b1-4)GlcNAc
Method in brief: as §1

[37] = biological target: Neu5Ac(a2-3)Gal(b1-4)GlcNAc(b1-3)Gal(b1-4)GlcNAc(b1-3)Gal(b1-4)GlcNAc
Method in brief: as §1

[38] = biological target: Neu5Ac(a2-3)Gal(b1-4)GlcNAc(b1-3)Gal(b1-4)GlcNAc(b1-3)Gal(b1-4)GlcNAc(b1-2)Man(a1-3)[Neu5Ac(a2-3)Gal(b1-4)GlcNAc(b1-3)Gal(b1-4)GlcNAc(b1-3)Gal(b1-4)GlcNAc(b1-2)Man(a1-6)]GalNAc
Method in brief: as §1

[39] = biological target: Neu5Ac(a2-3)Gal(b1-4)GlcNAc(b1-3)Gal(b1-4)GlcNAc(b1-3)GalNAc
Method in brief: as §1

[40] = biological target: Neu5Ac(a2-3)Gal(b1-4)GlcNAc(b1-3)Gal(b1-4)GlcNAc(b1-3)[Neu5Ac(a2-3)Gal(b1-4)GlcNAc(b1-3)Gal(b1-4)GlcNAc(b1-6)]GalNAc
Method in brief: as §1

[41] = biological target: Neu5Ac(a2-3)Gal(b1-4)GlcNAc(b1-3)Gal(b1-4)GlcNAc(b1-6)[Gal(b1-3)]GalNAc
Method in brief: as §1

[42] = biological target: Neu5Ac(a2-3)Gal(b1-4)GlcNAc(b1-3)Gal(b1-4)[Fuc(a1-3)]GlcNAc
Method in brief: as §1

[43] = biological target: Neu5Ac(a2-3)Gal(b1-4)GlcNAc(b1-3)GalNAc
Method in brief: as §1

[44] = biological target: Neu5Ac(a2-3)Gal(b1-4)GlcNAc(b1-3)[Neu5Ac(a2-3)Gal(b1-4)GlcNAc(b1-6)]GalNAc
Method in brief: as §1

B1: RBMC1 (Vibrio cholerae) (protein)
chain: QQSQRVVTADNLMYLRSGFAIDAIGTTVNNLVGGPVQGTNGGVLRAPIALDQLQSVEVTSGLYNWGGYHIVAIKFTMKDGSSVLLGSTHYASNKKVETYTVPQGKRIKQINVWTGGWLVEGFQFVY
For B1, the “glycan array binding signal (z-score)” value [1] was -0.226, the “glycan array binding signal (z-score)” value [2] was -0.296 and the “glycan array binding signal (z-score)” value [3] was -0.295. For the same binder, the “glycan array binding signal (z-score)” value [4] was -0.079, the “glycan array binding signal (z-score)” value [5] was -0.235 and the “glycan array binding signal (z-score)” value [6] was -0.271. For the same binder, the “glycan array binding signal (z-score)” value [7] was -0.272, the “glycan array binding signal (z-score)” value [8] was -0.105 and the “glycan array binding signal (z-score)” value [9] was -0.414. For the same binder, the “glycan array binding signal (z-score)” value [10] was 0.369, the “glycan array binding signal (z-score)” value [11] was -0.307 and the “glycan array binding signal (z-score)” value [12] was -0.32. For the same binder, the “glycan array binding signal (z-score)” value [13] was -0.375, the “glycan array binding signal (z-score)” value [14] was -0.314 and the “glycan array binding signal (z-score)” value [15] was -0.213. The “glycan array binding signal (z-score)” value [16] was -0.097, the “glycan array binding signal (z-score)” value [17] was -0.283 and the “glycan array binding signal (z-score)” value [18] was -0.219. The “glycan array binding signal (z-score)” value [19] was 0.07, the “glycan array binding signal (z-score)” value [20] was -0.295 and the “glycan array binding signal (z-score)” value [21] was -0.336. For the same binder, the “glycan array binding signal (z-score)” value [22] was -0.359, the “glycan array binding signal (z-score)” value [23] was -0.105 and the “glycan array binding signal (z-score)” value (Neu5Ac(a2-3)Gal(b1-4)Glc) was 0.516. The “glycan array binding signal (z-score)” value [24] was -0.305, the “glycan array binding signal (z-score)” value [25] was -0.164 and the “glycan array binding signal (z-score)” value [26] was -0.14. For the same binder, the “glycan array binding signal (z-score)” value [27] was 1.51, the “glycan array binding signal (z-score)” value [28] was 3.39 and the “glycan array binding signal (z-score)” value [29] was -0.198. For the same binder, the “glycan array binding signal (z-score)” value [30] was -0.332, the “glycan array binding signal (z-score)” value [31] was -0.394 and the “glycan array binding signal (z-score)” value [32] was -0.463. The “glycan array binding signal (z-score)” value [33] was -0.181, the “glycan array binding signal (z-score)” value [34] was -0.363 and the “glycan array binding signal (z-score)” value [35] was -0.306. For the same binder, the “glycan array binding signal (z-score)” value [36] was 0.214, the “glycan array binding signal (z-score)” value [37] was -0.32 and the “glycan array binding signal (z-score)” value [38] was 0.281. For the same binder, the “glycan array binding signal (z-score)” value [39] was -0.332, the “glycan array binding signal (z-score)” value [40] was -0.249 and the “glycan array binding signal (z-score)” value [41] was 0.14. The “glycan array binding signal (z-score)” value [42] was 0.075, the “glycan array binding signal (z-score)” value [43] was -0.267 and the “glycan array binding signal (z-score)” value [44] was -0.352.
